Patent US9821054B2 (priority 2011, dated 2017)
Where “and” joins values, the source holds several entries; their conditions need not be identical. Identical values can stand only once.

Key:
NK cells = system: NK cells; set-up: species or system C57BL/6 mice; conditions: mouse, in vivo
[1] = system: DCT-specific CD8+ T cells; set-up: species or system C57BL/6 mice; conditions: mouse, in vivo
[2] = system: CD8+ T cells (splenocytes) exposed to DCT180-188 peptide; set-up: species or system C57BL/6 mice; conditions: mouse, in vivo
B16-F10 cells [3] = system: B16-F10 cells; set-up: species or system C57BL/6 mice; conditions: mouse, in vivo
[4] = system: DCT-specific IgG antibodies; set-up: species or system C57BL/6 mice; conditions: mouse, in vivo
tumor = experiment: Viral replication and MHC expression within the tumor; type: in vivo; conditions: MS-275 in conjunction with oncolytic vaccine therapy
[5] = system: peripheral blood lymphocytes; type: in vivo, C57BL/6 mice
CD4+Foxp3+ Tregs = experiment: CD4+Foxp3+ Treg quantification during booster immunization
[6] = system: peripheral blood lymphocytes; set-up: species or system C57BL/6 mice; conditions: mouse, in vivo
[7] = system: lymphocyte progenitors (immature T cells, immature B cells); set-up: species or system mice; conditions: mouse, in vivo, iv
B16-F10 cells [8] = experiment: In vitro B16-F10 cell growth; type: cell-based
normal melanocytes = conditions: mouse, in vivo
rVSV-reactive CTLs = system: rVSV-reactive CTLs; set-up: species or system C57BL/6 mice; conditions: mouse, in vivo

## Nc1ccccc1NC(=O)c1ccc(CNC(=O)OCc2cccnc2)cc1 [MS-275, entinostat]
NK cells
  effect on rVSV-increased number of activated circulating NK cells: did not affect this
[1]
  frequency of CD8+ T cells that co-expressed TNF-α: increased
  intensity of IFN-γ production by CD8+ T cells: increased
  intensity of TNF-α production by CD8+ T cells: increased
  magnitude of the DCT-specific CD8+ T cell response: unaffected
  number of DCT-specific CTL: not affected
[2]
  more CD8+ T cells responding to the lowest concentration of peptide: 5.6 ×
B16-F10 cells [3]
  durable cure rate: 60-80%
  efficacy in cancer model: no effect on efficacy
  mice cured: 85% and 64%
[4]
  secondary DCT-specific antibody response: not affected
tumor
  MHC expression within the tumor: enhances
  viral replication within the tumor: enhances
[5]; MS-275 co-administered with VSV, 30-day period
  extension of VSV-induced lymphopenia: significantly extended
[5]; mouse, in vivo
  B cells eliminated: 97%
  circulating naïve CD8+ T cells: profound loss
  effect on peripheral blood lymphocyte counts: modest effect
  lymphopenia (total lymphocyte counts): transient but severe lymphopenia
  reduction of total CD4+ T cells: 77%
  resting NK cells (CD107a-IFN-γ-): substantially reduced
CD4+Foxp3+ Tregs; MS-275 during booster immunization
  reduction in number of Tregs: 75%
CD4+Foxp3+ Tregs; MS-275 treatment during booster immunization
  intensity of Foxp3 expression by Tregs: significantly lower
[6]
  extension of PolyI:C-induced lymphopenia: extended
[7]
  lymphocyte progenitors in thymus and bone marrow: depleted
B16-F10 cells [8]
  B16-F10 cell growth: inhibition
Normal melanocytes
  induction of systemic vitiligo by prime-boost vaccination: almost completely abolished
rVSV-reactive CTLs
  rVSV-reactive CTLs: significantly reduced

## polyinosine-polycytidylic acid [PolyI:C]
[6]
  lymphopenia, peripheral blood lymphocyte counts: identical lymphopenia
